Results are given in words; binding and its absence hold for the method and conditions named. Some binding calls cover weakened binding; strength is not graded here. For some assays here: Where a sequence is shown, tags or fusion partners need not be part of it.
T1: Rga7-mEGFP (S. pombe) (UniProt O94466)
T1 sequence: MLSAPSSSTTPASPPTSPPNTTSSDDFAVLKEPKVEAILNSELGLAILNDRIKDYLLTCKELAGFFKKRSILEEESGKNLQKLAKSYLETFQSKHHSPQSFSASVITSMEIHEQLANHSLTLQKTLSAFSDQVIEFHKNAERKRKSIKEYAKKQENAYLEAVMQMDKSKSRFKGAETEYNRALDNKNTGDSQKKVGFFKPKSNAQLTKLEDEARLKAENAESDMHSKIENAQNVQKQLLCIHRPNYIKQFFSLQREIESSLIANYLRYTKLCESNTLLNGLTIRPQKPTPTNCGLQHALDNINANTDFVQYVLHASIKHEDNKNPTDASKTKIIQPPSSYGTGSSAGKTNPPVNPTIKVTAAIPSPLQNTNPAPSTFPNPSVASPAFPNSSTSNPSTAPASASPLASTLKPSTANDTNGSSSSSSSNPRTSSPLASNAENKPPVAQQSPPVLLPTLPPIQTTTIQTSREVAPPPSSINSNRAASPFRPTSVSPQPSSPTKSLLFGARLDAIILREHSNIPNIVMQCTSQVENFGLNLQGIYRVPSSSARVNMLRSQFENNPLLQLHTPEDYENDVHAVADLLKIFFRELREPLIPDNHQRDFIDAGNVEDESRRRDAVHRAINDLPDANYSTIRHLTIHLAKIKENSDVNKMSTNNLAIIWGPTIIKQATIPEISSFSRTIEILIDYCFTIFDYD

Chains of the proteins cited; added tags and fusions are not shown.
UniProt Q10287: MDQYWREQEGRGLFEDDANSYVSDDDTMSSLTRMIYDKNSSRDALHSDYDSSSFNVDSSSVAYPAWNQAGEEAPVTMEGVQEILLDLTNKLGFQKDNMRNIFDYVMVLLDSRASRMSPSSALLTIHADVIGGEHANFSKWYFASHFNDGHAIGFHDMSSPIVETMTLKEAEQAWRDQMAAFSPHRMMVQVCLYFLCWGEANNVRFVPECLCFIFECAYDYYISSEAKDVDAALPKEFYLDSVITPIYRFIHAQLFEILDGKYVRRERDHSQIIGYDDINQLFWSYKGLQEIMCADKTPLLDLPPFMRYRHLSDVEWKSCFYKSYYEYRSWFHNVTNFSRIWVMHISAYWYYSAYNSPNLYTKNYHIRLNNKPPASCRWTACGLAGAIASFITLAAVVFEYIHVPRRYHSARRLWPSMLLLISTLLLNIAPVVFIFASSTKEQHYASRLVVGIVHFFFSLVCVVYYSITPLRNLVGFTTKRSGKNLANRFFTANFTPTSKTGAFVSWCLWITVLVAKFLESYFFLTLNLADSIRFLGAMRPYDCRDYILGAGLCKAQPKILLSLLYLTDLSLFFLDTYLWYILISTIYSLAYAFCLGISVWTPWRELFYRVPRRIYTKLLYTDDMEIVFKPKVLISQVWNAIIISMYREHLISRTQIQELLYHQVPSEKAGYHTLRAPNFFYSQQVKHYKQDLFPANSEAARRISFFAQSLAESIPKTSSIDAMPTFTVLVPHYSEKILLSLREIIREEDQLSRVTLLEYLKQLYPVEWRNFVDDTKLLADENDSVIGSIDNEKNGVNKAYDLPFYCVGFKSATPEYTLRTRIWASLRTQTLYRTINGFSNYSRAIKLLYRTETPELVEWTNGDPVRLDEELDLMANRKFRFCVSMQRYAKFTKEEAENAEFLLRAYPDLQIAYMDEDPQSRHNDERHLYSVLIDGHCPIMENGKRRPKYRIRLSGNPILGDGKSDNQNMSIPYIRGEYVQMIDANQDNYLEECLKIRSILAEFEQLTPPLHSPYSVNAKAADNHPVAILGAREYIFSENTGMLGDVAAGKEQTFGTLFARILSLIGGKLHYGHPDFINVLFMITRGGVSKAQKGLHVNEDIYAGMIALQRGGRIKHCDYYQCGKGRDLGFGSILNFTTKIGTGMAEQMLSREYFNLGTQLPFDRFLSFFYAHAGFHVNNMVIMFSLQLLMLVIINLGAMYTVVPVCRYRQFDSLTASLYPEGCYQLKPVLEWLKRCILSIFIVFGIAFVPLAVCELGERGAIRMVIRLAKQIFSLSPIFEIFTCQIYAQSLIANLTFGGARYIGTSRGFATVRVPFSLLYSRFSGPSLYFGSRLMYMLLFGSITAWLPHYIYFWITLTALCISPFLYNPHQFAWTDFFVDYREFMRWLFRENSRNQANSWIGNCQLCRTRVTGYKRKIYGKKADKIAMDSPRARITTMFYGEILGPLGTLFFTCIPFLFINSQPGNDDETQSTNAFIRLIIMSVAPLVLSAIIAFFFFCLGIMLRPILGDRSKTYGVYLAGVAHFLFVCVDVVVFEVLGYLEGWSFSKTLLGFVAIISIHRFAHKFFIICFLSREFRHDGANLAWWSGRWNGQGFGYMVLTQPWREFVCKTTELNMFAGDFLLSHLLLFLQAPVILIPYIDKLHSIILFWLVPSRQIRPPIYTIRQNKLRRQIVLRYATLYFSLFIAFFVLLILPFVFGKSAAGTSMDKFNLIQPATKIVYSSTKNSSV
UniProt Q9USK8: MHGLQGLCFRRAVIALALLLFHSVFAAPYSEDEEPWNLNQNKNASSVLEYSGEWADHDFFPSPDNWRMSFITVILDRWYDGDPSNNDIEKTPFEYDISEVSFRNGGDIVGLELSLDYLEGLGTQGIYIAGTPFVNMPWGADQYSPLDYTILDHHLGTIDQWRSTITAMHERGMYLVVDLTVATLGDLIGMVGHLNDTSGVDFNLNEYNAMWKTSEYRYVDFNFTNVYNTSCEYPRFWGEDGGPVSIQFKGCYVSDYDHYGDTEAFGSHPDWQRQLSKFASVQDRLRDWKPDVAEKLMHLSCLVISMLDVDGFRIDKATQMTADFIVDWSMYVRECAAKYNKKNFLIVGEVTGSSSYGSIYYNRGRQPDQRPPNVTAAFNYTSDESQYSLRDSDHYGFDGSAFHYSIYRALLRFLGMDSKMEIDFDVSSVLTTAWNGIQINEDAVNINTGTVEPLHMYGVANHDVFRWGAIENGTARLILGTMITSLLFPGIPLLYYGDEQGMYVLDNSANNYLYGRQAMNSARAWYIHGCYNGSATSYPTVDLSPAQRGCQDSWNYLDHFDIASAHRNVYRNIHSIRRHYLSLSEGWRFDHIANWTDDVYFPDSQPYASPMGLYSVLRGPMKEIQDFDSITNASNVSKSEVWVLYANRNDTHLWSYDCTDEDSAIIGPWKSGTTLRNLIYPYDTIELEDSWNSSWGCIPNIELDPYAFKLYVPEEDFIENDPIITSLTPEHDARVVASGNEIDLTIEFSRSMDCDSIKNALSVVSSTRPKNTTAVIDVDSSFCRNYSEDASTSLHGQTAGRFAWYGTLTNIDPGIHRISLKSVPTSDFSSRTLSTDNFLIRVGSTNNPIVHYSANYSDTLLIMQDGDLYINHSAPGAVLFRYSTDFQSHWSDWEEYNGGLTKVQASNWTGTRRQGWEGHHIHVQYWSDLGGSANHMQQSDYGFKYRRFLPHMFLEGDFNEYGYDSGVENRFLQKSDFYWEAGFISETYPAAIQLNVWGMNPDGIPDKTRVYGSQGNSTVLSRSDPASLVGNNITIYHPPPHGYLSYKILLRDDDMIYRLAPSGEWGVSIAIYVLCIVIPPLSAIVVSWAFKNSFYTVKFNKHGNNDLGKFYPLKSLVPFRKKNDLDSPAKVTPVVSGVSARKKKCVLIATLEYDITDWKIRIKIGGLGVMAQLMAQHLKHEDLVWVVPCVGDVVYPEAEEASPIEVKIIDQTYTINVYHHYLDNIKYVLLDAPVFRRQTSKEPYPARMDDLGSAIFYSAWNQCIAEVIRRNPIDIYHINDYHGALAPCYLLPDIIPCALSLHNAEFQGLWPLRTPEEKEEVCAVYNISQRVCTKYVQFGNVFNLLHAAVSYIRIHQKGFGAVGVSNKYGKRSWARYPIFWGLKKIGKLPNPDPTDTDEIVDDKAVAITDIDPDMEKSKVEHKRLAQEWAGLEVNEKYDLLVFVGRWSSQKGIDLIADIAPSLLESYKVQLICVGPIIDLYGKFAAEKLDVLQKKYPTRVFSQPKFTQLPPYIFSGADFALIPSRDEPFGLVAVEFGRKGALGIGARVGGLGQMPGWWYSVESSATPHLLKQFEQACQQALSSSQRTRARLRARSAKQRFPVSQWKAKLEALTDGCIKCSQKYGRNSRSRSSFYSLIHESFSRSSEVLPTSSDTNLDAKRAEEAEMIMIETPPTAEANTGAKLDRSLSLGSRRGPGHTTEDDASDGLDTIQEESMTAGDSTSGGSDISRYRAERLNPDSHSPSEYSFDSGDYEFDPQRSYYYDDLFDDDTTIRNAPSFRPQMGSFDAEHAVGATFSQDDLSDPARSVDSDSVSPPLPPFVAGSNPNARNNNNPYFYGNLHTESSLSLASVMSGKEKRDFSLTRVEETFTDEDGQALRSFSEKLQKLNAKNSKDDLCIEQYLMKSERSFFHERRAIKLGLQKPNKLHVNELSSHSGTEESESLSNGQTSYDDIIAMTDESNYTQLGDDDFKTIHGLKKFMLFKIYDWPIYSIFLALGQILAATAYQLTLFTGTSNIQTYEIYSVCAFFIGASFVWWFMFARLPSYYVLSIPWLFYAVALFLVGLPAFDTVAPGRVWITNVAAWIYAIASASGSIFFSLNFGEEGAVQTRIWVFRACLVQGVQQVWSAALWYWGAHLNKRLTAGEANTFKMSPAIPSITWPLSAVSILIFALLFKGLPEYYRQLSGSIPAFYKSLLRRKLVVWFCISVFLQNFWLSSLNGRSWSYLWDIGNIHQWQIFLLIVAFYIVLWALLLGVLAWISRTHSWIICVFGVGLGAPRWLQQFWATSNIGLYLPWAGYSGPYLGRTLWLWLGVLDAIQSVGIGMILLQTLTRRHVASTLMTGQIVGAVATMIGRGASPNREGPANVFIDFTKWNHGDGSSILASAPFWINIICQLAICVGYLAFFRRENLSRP
UniProt O74475: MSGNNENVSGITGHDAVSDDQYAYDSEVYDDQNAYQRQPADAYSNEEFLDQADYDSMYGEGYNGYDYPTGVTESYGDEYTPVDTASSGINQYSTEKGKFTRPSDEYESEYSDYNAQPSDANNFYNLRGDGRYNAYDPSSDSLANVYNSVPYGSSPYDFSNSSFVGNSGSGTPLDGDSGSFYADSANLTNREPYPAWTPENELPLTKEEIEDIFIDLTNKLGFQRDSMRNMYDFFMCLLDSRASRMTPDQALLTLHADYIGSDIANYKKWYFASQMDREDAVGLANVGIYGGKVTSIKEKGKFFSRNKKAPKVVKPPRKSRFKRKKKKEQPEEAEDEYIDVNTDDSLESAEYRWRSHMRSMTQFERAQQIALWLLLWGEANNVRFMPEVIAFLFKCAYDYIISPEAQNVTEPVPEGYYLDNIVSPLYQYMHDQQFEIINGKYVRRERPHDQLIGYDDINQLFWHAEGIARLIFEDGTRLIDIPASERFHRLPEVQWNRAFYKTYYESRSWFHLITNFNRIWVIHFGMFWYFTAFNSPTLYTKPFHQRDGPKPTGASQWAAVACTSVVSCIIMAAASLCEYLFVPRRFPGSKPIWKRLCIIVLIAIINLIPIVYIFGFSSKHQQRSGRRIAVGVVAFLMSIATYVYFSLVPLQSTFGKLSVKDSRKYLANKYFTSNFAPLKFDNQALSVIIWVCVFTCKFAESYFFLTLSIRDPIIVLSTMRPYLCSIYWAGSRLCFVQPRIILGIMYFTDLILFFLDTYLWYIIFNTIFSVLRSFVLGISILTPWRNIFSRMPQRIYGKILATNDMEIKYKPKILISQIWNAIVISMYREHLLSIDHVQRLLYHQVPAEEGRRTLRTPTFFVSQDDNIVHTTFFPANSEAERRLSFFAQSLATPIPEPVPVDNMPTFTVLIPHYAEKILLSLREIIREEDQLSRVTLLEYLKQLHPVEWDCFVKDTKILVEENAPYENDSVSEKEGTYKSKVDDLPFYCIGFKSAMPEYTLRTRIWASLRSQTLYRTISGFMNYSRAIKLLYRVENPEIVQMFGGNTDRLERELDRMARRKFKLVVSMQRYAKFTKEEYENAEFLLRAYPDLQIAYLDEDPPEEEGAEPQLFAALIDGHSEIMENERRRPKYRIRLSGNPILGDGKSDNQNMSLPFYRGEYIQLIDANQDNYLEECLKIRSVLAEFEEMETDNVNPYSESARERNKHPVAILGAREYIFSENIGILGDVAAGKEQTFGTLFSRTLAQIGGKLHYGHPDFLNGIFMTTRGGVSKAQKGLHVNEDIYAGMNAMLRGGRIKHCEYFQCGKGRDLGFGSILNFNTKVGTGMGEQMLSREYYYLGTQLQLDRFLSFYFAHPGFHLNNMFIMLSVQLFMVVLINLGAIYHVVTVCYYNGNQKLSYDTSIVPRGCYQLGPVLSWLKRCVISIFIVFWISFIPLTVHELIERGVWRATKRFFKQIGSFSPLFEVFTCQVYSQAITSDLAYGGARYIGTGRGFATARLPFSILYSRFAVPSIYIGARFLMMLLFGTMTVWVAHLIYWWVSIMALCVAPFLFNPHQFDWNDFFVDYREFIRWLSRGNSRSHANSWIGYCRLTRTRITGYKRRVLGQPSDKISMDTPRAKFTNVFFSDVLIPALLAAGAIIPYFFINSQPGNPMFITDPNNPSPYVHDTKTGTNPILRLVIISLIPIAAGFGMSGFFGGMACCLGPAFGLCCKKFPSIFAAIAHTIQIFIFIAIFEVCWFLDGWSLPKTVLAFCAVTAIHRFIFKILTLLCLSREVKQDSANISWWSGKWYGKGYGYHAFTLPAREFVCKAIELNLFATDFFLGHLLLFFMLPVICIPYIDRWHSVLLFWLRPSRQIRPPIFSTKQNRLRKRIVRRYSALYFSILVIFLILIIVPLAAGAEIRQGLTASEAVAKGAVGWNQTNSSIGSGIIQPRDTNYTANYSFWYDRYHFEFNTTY

T2: 3nmt1-mECitrine-Ync13 (S. pombe) (UniProt O13683)
T2 sequence: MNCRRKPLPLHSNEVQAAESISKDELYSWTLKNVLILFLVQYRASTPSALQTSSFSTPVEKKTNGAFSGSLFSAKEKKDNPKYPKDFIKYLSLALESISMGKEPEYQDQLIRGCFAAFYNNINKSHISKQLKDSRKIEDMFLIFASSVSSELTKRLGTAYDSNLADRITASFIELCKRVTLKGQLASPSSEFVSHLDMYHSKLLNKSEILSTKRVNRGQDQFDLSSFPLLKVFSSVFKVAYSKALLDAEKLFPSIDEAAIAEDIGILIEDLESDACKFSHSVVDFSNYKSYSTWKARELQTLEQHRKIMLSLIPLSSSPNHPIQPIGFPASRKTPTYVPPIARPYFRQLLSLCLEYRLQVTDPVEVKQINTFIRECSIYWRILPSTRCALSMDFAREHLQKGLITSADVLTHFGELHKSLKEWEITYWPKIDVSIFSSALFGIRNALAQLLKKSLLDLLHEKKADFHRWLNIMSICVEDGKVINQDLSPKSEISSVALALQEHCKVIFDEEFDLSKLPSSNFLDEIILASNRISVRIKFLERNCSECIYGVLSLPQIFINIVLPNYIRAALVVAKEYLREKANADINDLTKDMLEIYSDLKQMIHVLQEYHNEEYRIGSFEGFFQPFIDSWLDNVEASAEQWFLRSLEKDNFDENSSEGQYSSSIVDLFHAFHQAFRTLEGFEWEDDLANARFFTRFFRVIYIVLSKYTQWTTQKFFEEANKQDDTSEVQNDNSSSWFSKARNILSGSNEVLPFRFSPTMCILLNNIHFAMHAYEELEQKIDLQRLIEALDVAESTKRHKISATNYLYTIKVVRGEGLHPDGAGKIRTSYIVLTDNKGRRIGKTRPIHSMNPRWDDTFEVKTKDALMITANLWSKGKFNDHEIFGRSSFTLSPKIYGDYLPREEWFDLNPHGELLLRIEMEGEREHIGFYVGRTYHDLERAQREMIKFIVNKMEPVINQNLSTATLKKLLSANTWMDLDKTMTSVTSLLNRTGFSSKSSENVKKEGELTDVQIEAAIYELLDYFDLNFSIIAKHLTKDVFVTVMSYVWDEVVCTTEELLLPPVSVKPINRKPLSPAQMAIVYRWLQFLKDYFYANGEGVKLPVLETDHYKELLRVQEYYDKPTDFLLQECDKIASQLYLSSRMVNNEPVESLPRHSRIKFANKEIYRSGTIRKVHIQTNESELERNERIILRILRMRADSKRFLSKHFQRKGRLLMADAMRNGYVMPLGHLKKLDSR

T3: Rng10-mEGFP (S. pombe) (UniProt Q9P6L9)
T3 sequence: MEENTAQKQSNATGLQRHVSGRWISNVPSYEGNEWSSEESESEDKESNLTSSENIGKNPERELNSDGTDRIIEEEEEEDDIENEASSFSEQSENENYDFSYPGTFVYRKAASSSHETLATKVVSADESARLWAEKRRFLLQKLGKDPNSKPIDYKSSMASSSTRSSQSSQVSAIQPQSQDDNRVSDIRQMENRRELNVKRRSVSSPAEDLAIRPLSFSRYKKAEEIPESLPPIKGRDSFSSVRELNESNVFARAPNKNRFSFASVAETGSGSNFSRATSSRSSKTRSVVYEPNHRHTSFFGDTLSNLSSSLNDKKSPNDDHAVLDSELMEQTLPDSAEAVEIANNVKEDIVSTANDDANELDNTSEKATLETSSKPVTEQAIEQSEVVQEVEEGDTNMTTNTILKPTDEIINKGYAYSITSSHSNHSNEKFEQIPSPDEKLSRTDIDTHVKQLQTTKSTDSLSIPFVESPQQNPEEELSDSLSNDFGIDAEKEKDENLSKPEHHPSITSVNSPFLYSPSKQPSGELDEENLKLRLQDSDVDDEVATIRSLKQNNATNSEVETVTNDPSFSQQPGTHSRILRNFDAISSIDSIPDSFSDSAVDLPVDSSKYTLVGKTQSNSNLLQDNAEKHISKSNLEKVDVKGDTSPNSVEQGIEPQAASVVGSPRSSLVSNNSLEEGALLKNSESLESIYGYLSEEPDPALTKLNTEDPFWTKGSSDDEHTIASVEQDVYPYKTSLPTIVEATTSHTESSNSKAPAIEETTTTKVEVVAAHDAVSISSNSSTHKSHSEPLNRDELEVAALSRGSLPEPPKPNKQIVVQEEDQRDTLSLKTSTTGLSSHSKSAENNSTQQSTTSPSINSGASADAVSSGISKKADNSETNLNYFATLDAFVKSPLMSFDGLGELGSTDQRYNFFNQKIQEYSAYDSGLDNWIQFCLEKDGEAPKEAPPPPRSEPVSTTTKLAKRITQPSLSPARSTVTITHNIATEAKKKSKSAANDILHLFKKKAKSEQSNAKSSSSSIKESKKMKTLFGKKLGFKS

B1: Trs120-tdTomato (protein, UniProt O14251 1-1210)
chain: MEFDFFSFVAPSRVQSLVLPFGRVRRKSFSSYLQLLRRVSHIQLSDVPVATATRKSSSFNPLAFPLGRLVYNFLTSLDDQQALLEEFEYFRRVFVLIGIVDGSEEQEVEQLCSTLDVWRRRIPHALVAKCIVFNCPEDKENIFNAPNIIIGPRSDFSINSVMRSILCDITAELLEGFSSLEFSIHARSVILSPITDMPHLAPLQRKNSNASIHSLGSSSRPTLTRTPSITSRSVNSVTERSKSLSKGRIENQFGQLYLLAGRVPNALKHFSTAIALSKATGDFLWQGLSLELFTVCLVIMAHLHVDVQIPPNILSMFPSYNDRLNAFGPLKFDALLNFITEMRNVVDQLYQKSTLQPNDAVPGLCFSESILRYAHLLTVVYSCKGFNDNALDHIIAQAPIRPVKKATTYVPNKATICQWIMRAQGQHLNSLSIRERCRIYGAMANMLGSIGFSRLRVKMLRELVASLTPVLLETRRQNASKNGIHPEVIASHTAQSFKSTHYCNILPLISEICQEYGLLKTDGSLLNPELTKWGWSNLQFDVLNELISLCDSLSDYRSILLLISLFFLTSVQTASSSQQISMFKAFRKTYLFASNAGIHINAPYWDPFMITDLKFIGSSENAELIHQRLRNGLPKSIEKGPFIYNPFNRRQDQNQSKSVLVVDEQVAFSIYFRNPLSVSVEVQDVHLETKGVSAKCSHSTFTMRPLSIERTTLTVTPTETGELHIVGCRVKVFGCEPILQYVYEAKDKHKSLHVYLEKSKDVNAELRSLDTIDHLWTYFPFKKDLKTKSFDCIVIASQPKLSLAFQNLTSGKFNFAEYETGELVYVIENTSFVEASHISVLFEDSSSKAFEQAIADKSITADRLYELQFEEFNLPTFTVESSQPFSLSPGERREIHIKIRAKPNSQEGLILFESSVHKPEDTEFYVRRLRIPVSLNISKRVDLKQWSAFMDTEGDPSYCLVLLNFYNHFSEPLFVTVKTASTDESRSVLIKPKADNVILFRLKRFIMSSEEINLDIPNLSTKQFVLSSGFKKSIEDSYTMKKRFWIKEYFLKEVQASWKTDDNLHHGEIYLRNHILSDEMANNLSILPIRIQAWVSYDSEKVTTVCPREPFKLVLEFFGHADTNMRYKISWTQLNTQANTSSFNGLILDGPEEDIVCFNNSKCHVVIERNMFAYTTGMYNIFVRIFNEELQLLSQPVDLDEPILLIVDAK
B2: Smi1-tdTomato (protein, UniProt O14362 1-504)
chain: MSKNSFSSMANSVTSFFQSLTTPNRHADPSFRPSRREKQSRLPTPLQSVAASAYSGVNASQTGLLNDSRANSVTNLPNSSNTSQVGLNNISPAPVGYVPGSKTNELANNSMEMQEISPNGSASLPPPVSESWRRIDRWAEENYYELYCQLCYGATVADVDSLEYELECTLPRDVRESLYIHDGQDRGGQPTGILFGVTLLDIEEIEEESELWRRVAQSYAEATLAGKIDQAVASRQASFPPGAVQCVYAHPGWIPLAKDFVGNNIAIDLAPGPAGQWGQVILFGRDQDTKYVVARSWADFLAIVAYDMENGKWLVDEDDNSLRLIYGPPREQWSYLDILKYRARKAERRKFKKRDGKRTTRPIPKSIAKEDVTNSANSTAPSTGTTVLDDGLDNNYEDIPLYGPSKDEELIKKEELEADTDLGLINTSEINQPANLPDEPTAETSNPVSATTVEAVTTTADNKDEEKNDHVTEDVSQNSTIAEASSLQAQEEEKEIETTSVKQE

Target: T1, Rga7-mEGFP (S. pombe)
Test: ectopic mistargeting to mitochondria (Tom20-GBP); mEGFP-, GFP- or mECitrine-tagged protein 1 mistargeted to mitochondria by Tom20 tagged with GFP-binding protein (GBP) nanobody in live S. pombe cells; recruitment of tdTomato-, mCherry- or RFP-tagged protein 2 to mitochondria seen by confocal microscopy

| binding | Molecule |
| --- | --- |
| no binding | tdTomato-Bgs1 (from UniProt Q10287 1-1729) (enzyme) |
| binds | Ags1-mCherry (from UniProt Q9USK8 1-2410) (enzyme) |
| binds | RFP-Bgs4 (from UniProt O74475 1-1955) (enzyme) |
| binds | B1 |
| binds | B2 |

Target: T2, 3nmt1-mECitrine-Ync13 (S. pombe)
Test: as above

| binding | Molecule |
| --- | --- |
| binds | Ags1-mCherry (from UniProt Q9USK8 1-2410) (enzyme) |
| binds | RFP-Bgs4 (from UniProt O74475 1-1955) (enzyme) |

Target: T3, Rng10-mEGFP (S. pombe)
Test: as above

| binding | Molecule |
| --- | --- |
| no binding | tdTomato-Bgs1 (from UniProt Q10287 1-1729) (enzyme) |
| binds | Ags1-mCherry (from UniProt Q9USK8 1-2410) (enzyme) |
| binds | RFP-Bgs4 (from UniProt O74475 1-1955) (enzyme) |
| binds | B1 |

Source: paper doi:10.1101/2025.05.13.653810, “Spatial control of secretory vesicle targeting by the Ync13–Rga7–Rng10 complex during cytokinesis” (bioRxiv, 2025)
